Publication PMC10190621
Results are given in words; binding and its absence hold for the method and conditions named. Where a sequence is shown, tags or fusion partners need not be part of it.

Target: T1, Fc-tagged DDRGK1 (full length) (human) (UniProt Q96HY6)
T1 sequence: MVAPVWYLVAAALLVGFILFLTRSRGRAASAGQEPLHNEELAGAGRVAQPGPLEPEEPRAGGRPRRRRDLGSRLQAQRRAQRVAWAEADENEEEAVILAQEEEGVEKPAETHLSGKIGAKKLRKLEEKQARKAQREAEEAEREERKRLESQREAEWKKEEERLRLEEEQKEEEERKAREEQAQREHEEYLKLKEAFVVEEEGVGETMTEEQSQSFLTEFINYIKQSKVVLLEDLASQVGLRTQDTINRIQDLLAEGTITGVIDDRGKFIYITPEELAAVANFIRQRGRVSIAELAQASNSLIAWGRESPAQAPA
Experiment: pull-down; Fc pulldown: 10 µg purified Fc or Fc-DDRGK1 on Protein A/G immunomagnetic beads (room temperature 0.5 h), mixed with recombinant NRF2 and KEAP1 proteins at 4 °C overnight, washed three times, immunoblot; both purified

B1: GST-tagged NRF2 (N-terminal amino acids 1-84, containing domains interacting with KEAP1) (domain or fragment, UniProt Q16236 1-84)
chain: MMDLELPPPGLPSQQDMDLIDILWRQDIDLGVSREVFDFSQRRKEYELEKQKKLEKERQEQLQKEQEKAFFAQLQLDEETGEFL
  binding: no binding (tested: 10 µg Fc-DDRGK1)
